Assay results published in paper PMC4336329 (PLoS ONE, 2015).
Among all 310,000 compounds or so, about 2,200 (0.71%) showed an effect of 50% or more. Effects have a minus sign here. The list shows a part of the results.

Target: human ether-à-go-go-related gene (hERG) potassium channel (human, UniProt Q12809)
Experiment: primary screen, population patch clamp on CHO cells stably expressing hERG

Chain of human ether-à-go-go-related gene (hERG) potassium channel (Q12809 whole entry, looked up): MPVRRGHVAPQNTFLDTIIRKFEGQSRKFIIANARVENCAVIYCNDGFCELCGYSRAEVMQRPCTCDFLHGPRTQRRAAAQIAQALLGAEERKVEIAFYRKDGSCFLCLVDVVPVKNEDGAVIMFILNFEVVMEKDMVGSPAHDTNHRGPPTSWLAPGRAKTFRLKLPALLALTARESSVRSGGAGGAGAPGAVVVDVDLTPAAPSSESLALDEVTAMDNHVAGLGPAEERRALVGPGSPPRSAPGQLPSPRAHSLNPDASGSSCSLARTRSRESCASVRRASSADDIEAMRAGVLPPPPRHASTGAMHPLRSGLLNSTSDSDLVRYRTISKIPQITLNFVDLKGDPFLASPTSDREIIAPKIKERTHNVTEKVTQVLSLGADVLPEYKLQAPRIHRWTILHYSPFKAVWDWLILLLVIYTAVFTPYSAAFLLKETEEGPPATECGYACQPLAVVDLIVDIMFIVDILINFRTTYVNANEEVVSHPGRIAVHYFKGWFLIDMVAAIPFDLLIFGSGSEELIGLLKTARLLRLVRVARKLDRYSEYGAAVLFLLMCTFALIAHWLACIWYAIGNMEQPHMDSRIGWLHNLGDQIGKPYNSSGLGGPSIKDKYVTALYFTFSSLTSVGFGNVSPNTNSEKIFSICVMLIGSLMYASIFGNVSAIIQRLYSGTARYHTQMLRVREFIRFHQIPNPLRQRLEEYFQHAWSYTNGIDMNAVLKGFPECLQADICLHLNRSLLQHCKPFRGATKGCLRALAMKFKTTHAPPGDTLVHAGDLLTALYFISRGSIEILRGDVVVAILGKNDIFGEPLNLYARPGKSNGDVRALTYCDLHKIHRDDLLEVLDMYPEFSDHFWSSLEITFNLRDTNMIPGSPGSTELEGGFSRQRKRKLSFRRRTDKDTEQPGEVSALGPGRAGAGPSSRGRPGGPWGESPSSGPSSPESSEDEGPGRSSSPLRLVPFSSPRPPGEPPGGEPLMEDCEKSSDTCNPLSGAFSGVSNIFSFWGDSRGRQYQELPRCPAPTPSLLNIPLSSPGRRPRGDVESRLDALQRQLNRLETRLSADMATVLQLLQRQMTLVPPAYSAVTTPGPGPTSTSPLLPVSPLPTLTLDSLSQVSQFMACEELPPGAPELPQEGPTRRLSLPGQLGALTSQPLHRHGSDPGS

Row | SMILES | hERG current change (%, negative = inhibition) at 1uM [%]
1 | O=C(COc1ncnc2sccc12)N1CCN(C(=O)c2ccco2)CC1 | 12.4
2 | COc1ccc(Cn2c(CCC(=O)NCCC(C)C)nc3ncccc3c2=O)cc1 | -12
3 | Cc1ccc(C)c(NC2=NCC(=O)N2c2ccc3c(c2)OCCO3)c1 | -0.557
4 | Cc1cc([N+](=O)[O-])c(C)cc1-c1ccc(/C=N/NC(=O)Cn2nnnc2N)o1 | 8.58
5 | Cn1c(=O)c(C(=O)NC2CCCCCC2)c(O)c2ccccc21 | 15.5
6 | C/C=C/C(=O)Nc1cccc(C2=NOC3(C2)C[C@@H](C(N)=O)N(C(=O)C(c2ccccc2)c2ccccc2)C3)c1 (some centres unmarked) | 9.84
7 | COc1ccc(-n2nnnc2SCC(=O)N2C(C)CCCC2C)c(OC)c1 (centres unmarked) | 8.14
8 | CC(C)(C)NC(=O)C1N(c2cccnc2)C(=O)C2C(C(=O)Nc3ccccc3F)C3(C)C=CC21O3 (centres unmarked) | -13.1
9 | O=C(Cn1cc(C(F)(F)F)cc(Cl)c1=O)Nc1cc(Cl)cc(Cl)c1 | 10.3
10 | O=[N+]([O-])c1nn(-c2ccc(Cl)cc2)n(O)c1=NCc1ccccc1Cl | 6.45
11 | Cc1ccc(C(=O)C(C)OC(=O)c2cc(=O)[nH]c3ccccc23)cc1 (centres unmarked) | 19.9
12 | Cc1cc(C)c(S(=O)(=O)NCc2ccccn2)cc1C | 10.3
13 | CCOC(=O)C(NC(=O)c1ccccc1Cl)(Nc1ccc(C(F)(F)F)cc1)C(F)(F)F (centres unmarked) | 4.99
14 | O=C(O)c1ccc(Oc2cc(Oc3ccc(C(=O)O)cc3)cc([N+](=O)[O-])c2)cc1 | 12
15 | CCOC(=O)/C=c1\s/c(=C\c2c(OC)ccc3ccccc23)c(=O)n1CC(=O)NCC1CCCO1 (centres unmarked) | 7.6
16 | O=C(COc1ccc(/C=N/NC(=O)c2ccc(O)cc2)cc1)Nc1cccc([N+](=O)[O-])c1 | 19.6
17 | Cc1ccc2c(C)c(C(=O)NCCN3CCCC(O)C3)oc2c1C (centres unmarked) | 14.1
18 | COc1cc(C(=O)NCCc2ccc(S(=O)(=O)N3CCCC3)cc2)cc(OC)c1OC | -7
19 | Cc1cc(/C=N/n2cnnc2)c(C)n1-c1ccc(Cl)cc1Cl | 6.1
20 | NC(=O)N/N=C/c1cc(Br)ccc1OCC(=O)NCc1ccccc1 | 10.8
21 | COc1ccc(C(=O)Nc2ccc(S(=O)(=O)N(C)c3ccccc3)cc2)cc1 | 14.3
22 | O=C(Cn1ccc([N+](=O)[O-])n1)Nc1ccccn1 | 26.2
23 | Cc1ccc(C(C(=O)NCc2ccco2)N(CC2CCCO2)C(=O)Cn2nnc3ccccc32)cc1 (centres unmarked) | 10.8
24 | Cc1cccc(OCCSc2nc3ncnc(N)c3[nH]2)c1 | 3.41
25 | COc1ccc2nc(NC(=O)C3=NN(c4ccccc4)C(=O)CC3)sc2c1 | 19.5
26 | CCOc1ccc(NC(=O)Nc2ccccc2SC)cc1 | 15.5
27 | CCOC(=O)n1c(=O)oc2cc(S(=O)(=O)N3CCCCC3)ccc21 | 16.5

Row | SMILES | hERG current change (%, negative = inhibition) at 1uM [%]
28 | CN1C(=O)/C(=C/c2ccccc2OCc2ccccc2)NC1=S | 13.1
29 | Cc1cc(C(=O)CN2C(=O)NC(C)(CC(C)C)C2=O)c(C)n1-c1ccc2c(c1)OCO2 (centres unmarked) | 11.9
30 | C/C(=N/Nc1ncc(Br)cn1)c1ccc([N+](=O)[O-])cc1 | -0.334
31 | Cc1cc(C)c(OCC(=O)N(Cc2cccs2)C2CCS(=O)(=O)C2)c(C)c1 (centres unmarked) | 2.16
32 | CC(C)(C)c1cc(-c2csc(Nc3ccccc3)[n+]2Cc2ccc(C(=O)O)cc2)cc(C(C)(C)C)c1O.[Br-] | -6.68
33 | Cc1ccccc1CC1(CO)CCCN(Cc2nc(-c3cccs3)oc2C)C1 (centres unmarked) | 6.69
34 | CN1C(=O)/C(=C\c2ccco2)N=C1c1ccc(Cl)cc1Cl | 0.551
35 | O=c1c2c(nc3cc(-c4cccc(F)c4)[nH]n13)CCC2 | 4.68
36 | O=C(Nc1ccnn1C1CCN(C2CCCCC2)CC1)c1ccccc1 | 12.1
37 | O=C(COc1cc(F)ccc1[N+](=O)[O-])Nc1ccc(N2CCCCC2)cc1 | 5.98
38 | CCOc1ccc(S(=O)(=O)NCC2CCCO2)cc1 (centres unmarked) | 0.189
39 | S=C1CSc2ccccc2N1 | 5.58
40 | CCOc1cc(/C=N/NC(=O)C2CCCC2)ccc1OC(C)C | 10
41 | COC(=O)C1=C(C)NC(=O)CC1c1cc(Br)ccc1F (centres unmarked) | 10.9
42 | COc1ccc(CC(NC(C)=O)C(=O)NC2CCN(C(=O)C3CCCCC3)CC2)c(OC)c1 (centres unmarked) | 15.6
43 | O=C(O)c1cnc(-c2ccccc2)nc1Sc1ccc(Cl)cc1Cl | 2.55
44 | O=C(Cc1cccs1)N(CC1CCCO1)C1(C(=O)NC2CCCCC2)CCCCC1 (centres unmarked) | 13.6
45 | CCOP(=O)(OCC)C(NC(=O)NS(=O)(=O)c1ccc(C)cc1)c1ccccc1 (centres unmarked) | 10.1
46 | COc1cc(Cl)c(S(=O)(=O)N2CCOCC2)cc1Cl | 1.24
47 | COC(=O)[C@H]1[C@H]2C[C@@H]3c4[nH]c5cc(OC)ccc5c4CCN3C[C@H]2C[C@@H](OC(=O)c2ccc(N)cc2)[C@@H]1OC | 1.62
48 | C=CCNC(=O)c1ccc(Cl)cc1Cl | 13.4
49 | COc1ccc(N(C(=O)C(C)C)S(=O)(=O)c2ccc3c(c2)n(C)c(=O)n3C)cc1 | 6.68
50 | CN(C(=O)c1ccncc1)C1CC(C)(C)N(O)C(C)(C)C1 | 4.11
51 | CCCCn1c(O)c(/C=N/NC(=O)c2ccncc2)c(=O)[nH]c1=O | 5.98
52 | COC(=O)c1[nH]c(C)c(/C(O)=C2\C(=O)C(=O)N(CCN3CCOCC3)C2c2ccccc2OC)c1C (centres unmarked) | 24
53 | O=C(NCc1ccc(Cl)s1)C1CCC(=O)N(CCc2ccccn2)C1 (centres unmarked) | 8.38
